# Laboratory results reported in PubChem BioAssay AID602329 (Broad Institute, 2012).
# The whole screen tested about 360,000 compounds, of which about 510 (0.14%) were called active. Inconclusive means that the source gave no clear call. Such entries were picked first, then a sample of the others.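 How the source made its calls: active means mean normalized replicate activity at least 40 and at least half of replicates scoring 40 or more; inconclusive means only one of the two criteria met; inactive means mean below 40 and under half of replicates reaching 40.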
# Molecular target: DNA repair and recombination protein RAD54-like (Homo sapiens) (UniProt Q92698)
# Assay: RAD54 Holliday junction migration blockers – biochemical, fluorescence, single point, primary screen (AID 602329);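 further: 0% = median of neutral control wells and 100% = median of positive control wells; inhibitors cause a drop in the FAM fluorescence signal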
# Details: RAD54 Holliday junction branch migration, FAM/BHQ fluorescence; at 10.4 µM; stronger effect = higher value
# Chain of UniProt Q92698 (Q92698 whole entry, looked up): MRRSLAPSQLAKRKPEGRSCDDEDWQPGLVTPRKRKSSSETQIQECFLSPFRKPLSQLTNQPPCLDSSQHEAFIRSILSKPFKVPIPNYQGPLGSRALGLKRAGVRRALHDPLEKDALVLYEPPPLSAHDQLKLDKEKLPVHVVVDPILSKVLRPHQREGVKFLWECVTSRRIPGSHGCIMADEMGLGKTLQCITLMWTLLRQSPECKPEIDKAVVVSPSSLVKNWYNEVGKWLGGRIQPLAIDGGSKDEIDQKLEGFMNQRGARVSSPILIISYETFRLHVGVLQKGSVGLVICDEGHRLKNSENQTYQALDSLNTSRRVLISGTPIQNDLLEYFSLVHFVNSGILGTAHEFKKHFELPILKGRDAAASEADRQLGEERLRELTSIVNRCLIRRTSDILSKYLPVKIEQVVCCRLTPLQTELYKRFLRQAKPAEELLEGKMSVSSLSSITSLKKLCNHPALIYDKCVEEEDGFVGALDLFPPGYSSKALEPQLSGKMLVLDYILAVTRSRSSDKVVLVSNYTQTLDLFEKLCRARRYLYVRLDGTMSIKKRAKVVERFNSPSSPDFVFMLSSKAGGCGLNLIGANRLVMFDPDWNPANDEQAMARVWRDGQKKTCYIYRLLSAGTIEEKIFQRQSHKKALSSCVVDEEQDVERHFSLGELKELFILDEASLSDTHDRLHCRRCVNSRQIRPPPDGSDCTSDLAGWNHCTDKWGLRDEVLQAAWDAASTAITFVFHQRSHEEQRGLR
row,Compound,inhibition
1,COC(=O)C[C@H]1CC[C@@H]2[C@H](COc3ccc(NS(=O)(=O)c4ccc(F)cc4)cc3C(=O)N2C)O1,inactive: 0.118%
2,Cc1c(-c2cc(Br)ccc2O)nc2cc3c(cc2c1C)OCO3,inconclusive: 38.2%
3,COc1ccc(CN2CCN(c3nc4ccccc4s3)CC2)cc1,inactive: -4.17%
4,C[C@H]1CN([C@@H](C)CO)S(=O)(=O)c2ccc(-c3cccnc3)cc2O[C@@H]1CN(C)C(=O)c1cccc(F)c1,inactive: -3.12%
5,CS(=O)(=O)NNC(=O)Cn1nnc(-c2cc(C(F)(F)F)cc(C(F)(F)F)c2)n1,inconclusive: 33.4%
6,CC1CCCCC1NC(=O)C1Cc2ccccc2CN1S(C)(=O)=O (configuration not stated),inconclusive: 25.3%
7,COc1ccc(CNC(=O)Cn2nc(-c3ccc4c(c3)OCCO4)ccc2=O)cc1,inactive: 3.48%
8,O=C(NC1CCC1)[C@@H]1[C@@H](CO)[C@@H]2Cn3c(ccc(-c4ccc(F)cc4)c3=O)[C@@H]2N1Cc1ccccn1,inconclusive: 30.3%
9,CO[C@H]1CN(C)C(=O)c2cc(NC(=O)C3CCC3)ccc2OC[C@@H](C)N(Cc2cccnc2)C[C@@H]1C,inactive: -6.05%
10,CCOC(=O)c1[nH]c2cc3c(cc2c1CCCN1C(=O)c2ccccc2C1=O)OCCO3,inconclusive: 36.9%
11,C[C@@H]1CN([C@H](C)CO)C(=O)c2cccc(NS(=O)(=O)c3cn(C)cn3)c2O[C@@H]1CN(C)Cc1ccccc1,inactive: -2.66%
12,CN(C)C(CNC(=O)C1CC(=O)N(Cc2ccccc2)C1)c1ccccc1 (configuration not stated),inactive: -4.09%
13,CN(C)c1ccc2c(c1)[C@@H]1C[C@H](CC(=O)NCCN3CCCCC3)O[C@H](CO)[C@@H]1O2,inconclusive: 43.5%
14,CNC(C)C#Cc1ccc2oc3cccc(OC)c3c(=O)c2c1 (configuration not stated),inconclusive: 39.2%
15,C=C1CC[C@@H]2[C@](C)(CO)[C@H](O)CC[C@@]2(C)[C@@H]1C/C=C1/C(=O)OCC1O (some centres not stated),inconclusive: 33.2%
16,CCCN1CCN(CCCNC(=O)c2cc3c(=O)n(C)c4ccccc4c3n2C)CC1,inconclusive: 48.5%
17,CN1CCN(CCNC(=O)c2cc3c(=O)n(C)c4ccccc4c3n2C)CC1,active: 63.6%
18,COc1ccc(CN(C)C[C@H]2OCCCC[C@H](C)Oc3ccc(NC(=O)Nc4ccc(C(F)(F)F)cc4)cc3C(=O)N([C@@H](C)CO)C[C@H]2C)cc1,inactive: 1.2%
19,CC(C(=O)c1ccc(-c2ccccc2)cc1)[n+]1cccc(NC(=O)c2ccccc2)c1 (configuration not stated),inconclusive: 38.6%
20,CCOc1nc(N=C(N)N)nc2c(C)cccc12,active: 59.8%
21,CCN(CC)CCSc1nnc2c3cc(C)ccc3n(Cc3ccccc3)c2n1,inconclusive: 48.6%
22,CCOC(=O)N1CCC(NS(=O)(=O)c2ccc(C#N)cc2)CC1,inactive: -2.31%
23,C=C1C(=O)[C@]23C[C@H]1CCC2[C@]1(C)C(=O)CC[C@@](C)(C(=O)O)C1C[C@@H]3O (some centres not stated),inactive: 0.671%
24,CN(C)CCCNc1nc2cc(-c3ccc(C(=O)N4CCN(C)CC4)cc3)sc2c(=O)n1C,inconclusive: 49.4%

row,Compound,inhibition
1,Cc1ccc(-c2nc(N3CCN(C)CC3)c3ccccc3n2)cc1,active: 57.2%
2,COc1ccccc1CNC(=O)C[C@H]1C[C@@H]2c3cc(NC(=O)c4cccnc4)ccc3O[C@@H]2[C@H](CO)O1,inconclusive: 30.3%
3,CN(C)CCCNC(=O)/C(=C\c1ccc(-c2ccc(Br)cc2)o1)NC(=O)c1ccccc1,inconclusive: 49.9%
4,C[C@@H]1CN([C@H](C)CO)C(=O)c2cc(C#C[C@@H](C)O)cnc2O[C@@H]1CN(C)C(=O)c1ccncc1,inactive: 0.426%
5,Cc1cc(C)c2nc(C)cc(N/N=C/c3ccc(O)cc3)c2c1,active: 119%
6,CCCCCCCCCCOC(=O)Cn1c(COc2ccccc2C)[n+](C)c2ccccc21,inconclusive: 33.9%
7,C[C@H](CO)N1C[C@H](C)[C@@H](CN(C)S(=O)(=O)c2ccc(Cl)cc2)Oc2ccc(NC(=O)CCCN(C)C)cc2C1=O,inactive: -1.91%
8,CO[C@H]1CN(C)C(=O)c2cc(NC(=O)Nc3c(C)noc3C)ccc2OC[C@@H](C)N(CCC(F)(F)F)C[C@@H]1C,inactive: 7.06%
9,O=C(Nc1ccccc1)c1cc(S(=O)(=O)N2CCOCC2)cs1,inconclusive: 43.5%
10,C#CCOCCOCCOCCNc1nc(N2CCN(C(=O)CCCCCCCCCCNC(=O)Cn3cc(CCCCCN)nn3)CC2)nc(N2CCN(C(=O)CCCCCCCCCCNC(=O)[C@H](CO)n3cc(CCCCCN)nn3)CC2)n1,inconclusive: 33.9%
11,Cc1nc2ccccc2c2oc(C(=O)N3CCC(N4CCCCC4)CC3)cc12,active: 67.1%
12,CC1(C)Cc2c(sc(NC(=O)c3ccco3)c2C(=O)O)CO1,inactive: 5.3%
13,CO[C@@H]1CN(C)C(=O)c2cc(NC(=O)C3CCOCC3)ccc2OC[C@H](C)N(CC2CC2)C[C@@H]1C,inactive: 5.25%
14,O=C(C[C@@H]1CC[C@@H]2[C@H](COC[C@@H](O)CN2C(=O)c2ccncc2)O1)NC1Cc2ccccc2C1,inactive: -11.8%
15,C[C@H](CO)N1C[C@H](C)[C@H](CN(C)Cc2ccc(C(=O)O)cc2)OCCCC[C@H](C)Oc2ccc(NC(=O)Nc3ccccc3)cc2C1=O,inactive: 0.497%
16,CS(=O)(=O)N1[C@@H]2Cn3c(ccc(C4=CCCCC4)c3=O)[C@H]1[C@@H](C(=O)N1CCOCC1)[C@@H]2CO,inconclusive: 45.8%
17,C[C@@H]1CCCCO[C@@H](CN(C)S(C)(=O)=O)[C@H](C)CN([C@H](C)CO)C(=O)c2cc(NC(=O)Nc3ccc4c(c3)OCO4)ccc2O1,inconclusive: 29.3%
18,COC(=O)C[C@H]1C=C[C@@H](NC(=O)c2ccccc2)[C@H](CO)O1,inactive: 4.1%
19,COc1cc2nc(Nc3ccc(F)cc3)nc(N)c2cc1OC,active: 58.9%
20,Cn1c(=O)[nH]c(=O)c2c1nc(N/N=C/c1ccncc1)n2Cc1ccc(F)cc1,inconclusive: 37.4%
21,CCOC(=O)c1c(C)n(C)c2ccc(OCC(O)CN3CCC(C)CC3)cc12 (configuration not stated),inconclusive: 45.3%
22,C[C@H]1CN([C@@H](C)CO)C(=O)c2c(c3ccccc3n2C)-c2ccccc2CO[C@H]1CN(C)S(=O)(=O)c1ccc(F)cc1,inactive: 3.21%
23,C#CCOCCOCCOCCNc1nc(N2CCN(C(=O)CCCCCCCCCCNC(=O)[C@H]([C@@H](C)CC)n3cc(CCCCCN)nn3)CC2)nc(N2CCN(C(=O)CCCCCCCCCCNC(=O)[C@H](CO)n3cc(CCCCCN)nn3)CC2)n1,inconclusive: 43.6%
24,C=CC(=O)Nc1ccc(Nc2ccnc(Nc3ccc(N4CCN(C)CC4)cc3)n2)cc1,active: 81.2%

row,Compound,inhibition
1,COc1ccc(-c2cn[nH]c2-c2ccc(OCc3ccc([N+](=O)[O-])cc3)cc2O)cc1OC,inactive: 7.7%
2,COc1ccc(N2CCN(C(=O)Cn3ncc4c([nH]c5ccccc54)c3=O)CC2)cc1,inactive: -12.5%
3,Cn1c(NCCN2CCCC2)nc2cc(-c3ccccc3)sc2c1=O,inconclusive: 44.2%
4,CC(=O)NC(c1ccco1)c1ccc2cccnc2c1O (configuration not stated),inactive: -3.3%
5,O=S1(=O)C=CC(c2ccccc2)C1 (configuration not stated),inconclusive: 31.6%
6,COc1ccc(S(=O)(=O)N(C)C[C@@H]2Oc3ccc(NC(=O)Nc4ccc5c(c4)OCO5)cc3C(=O)N([C@H](C)CO)C[C@H]2C)cc1,inconclusive: 48.4%
7,COC(=O)C1=C(C)Nc2nc3ccccc3n2C1c1ccccc1F (configuration not stated),inconclusive: 29.2%
8,CCOC(=O)c1cnc2c(CC)cccc2c1NCCCN1CCOCC1,inconclusive: 32.8%
9,CCOc1cc2nc(-c3ccc(OC)c(OC)c3)nc(NCCCN3CCOCC3)c2cc1OC,active: 84.6%
10,CN(C)C(=O)c1cccc(-c2cnc3c(NC=O)cc(-c4ccccc4F)cn23)c1,inactive: 3.62%
11,Cc1c(CN(C)C)c2c(n1C)C(=O)c1ccc(Br)cc1-2,active: 70.9%
12,Cc1ccc(S(=O)(=O)N2CCOCC2)c(C)c1NS(C)(=O)=O,inconclusive: 30.3%
13,COc1ccc(S(=O)(=O)N(C)C[C@@H]2Oc3ccc(NC(=O)Nc4c(C)noc4C)cc3CC(=O)N([C@@H](C)CO)C[C@@H]2C)cc1,inconclusive: 47.1%
14,NC1CCN(c2c(F)cc3c(=O)c(C(=O)O)cn(C4CC4)c3c2Cl)C1 (configuration not stated),inconclusive: 47.5%
15,Cc1cc(-c2cc(NC=O)c3ncc(-c4cccc(C(=O)NCCN(C)C)c4)n3c2)cc(C)c1O,active: 62%
16,Cn1c(CSCCOc2ccccc2)n[nH]c1=S,inactive: -18.8%
17,COc1ccc(C(=O)N/N=c2\oc3ccccc3cc2C(=O)NCc2ccccc2)cc1,inconclusive: 33.9%
18,CCC(=O)N(C)C[C@@H]1Oc2cc(-c3ccccc3OC)ccc2S(=O)(=O)N([C@H](C)CO)C[C@@H]1C,inactive: 6.07%
19,Cc1noc(C)c1NC(=O)Nc1ccc2c(c1)C(=O)N([C@@H](C)CO)C[C@H](C)[C@@H](CN(C)S(C)(=O)=O)OCCCC[C@@H](C)O2,inconclusive: 25.2%
20,CN(C)c1ccc2c(c1)[C@@H]1C[C@@H](CC(=O)NCc3cc(F)ccc3F)O[C@H](CO)[C@@H]1O2,inconclusive: 25.3%
21,N#Cc1cccc2c1-c1ccccc1/C2=N/NC(N)=O,active: 84.7%
22,CCNCCNC(=O)c1c(O)c2cccc3c2n(c1=O)CCC3,inconclusive: 47.3%
23,COc1ccc2nc(C)cc(Nc3ccc(N4CCOCC4)cc3)c2c1,inconclusive: 49.1%
24,CN(C)CCN(C(=O)CN1C(=O)c2ccccc2C1=O)c1nc2cc3c(cc2s1)OCCO3,inconclusive: 45.1%
